In PubChem BioAssay AID1645887 (National Center for Advancing Translational Sciences (NCATS), 2021):
Values joined by “and” are separate entries in the source; they are usually repeats but may differ in a detail not shown here. Equal values may be shown once. About 40 (0.2%) of roughly 16,000 compounds were called active. Not shown: some 1% with an inconclusive outcome. The call rests on the fitted dose curve; in most records, active means well fitted activation curve with a large enough effect; inconclusive means small, poorly fitted or top-dose-only effect, or another doubt; inactive means no such curve, though single readings can be large or run the other way. This is one part of the list.

Each compound was assayed against Rap guanine nucleotide exchange factor 4 (Homo sapiens) (UniProt Q8WZA2) (assay: Validation qHTS for agonist of cAMP-regulated guanine nucleotide exchange factor 4 (EPAC2)). Settings: EPAC2 Rap1B BODIPY-GDP exchange, fluorescence; activation: hits give high values.
Method in brief: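 Signal normalized against 6.5 mM cAMP as agonist control. Mix of EPAC2 (100 nM), RAP1B-BODIPY-GDP (250 nM) and GDP (50 uM) was read kinetically at 480/540 nm, every 5 min over 30 min, after 5 min room-temperature incubation with compound.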
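Further: exchange makes BODIPY-GDP fluorescence drop when released from Rap1B; series mostly up to about 150 µM.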
On the % scale 0 is the no-effect control and ±100 the full control effect.

Sequence of UniProt Q8WZA2 (Q8WZA2 whole entry, looked up): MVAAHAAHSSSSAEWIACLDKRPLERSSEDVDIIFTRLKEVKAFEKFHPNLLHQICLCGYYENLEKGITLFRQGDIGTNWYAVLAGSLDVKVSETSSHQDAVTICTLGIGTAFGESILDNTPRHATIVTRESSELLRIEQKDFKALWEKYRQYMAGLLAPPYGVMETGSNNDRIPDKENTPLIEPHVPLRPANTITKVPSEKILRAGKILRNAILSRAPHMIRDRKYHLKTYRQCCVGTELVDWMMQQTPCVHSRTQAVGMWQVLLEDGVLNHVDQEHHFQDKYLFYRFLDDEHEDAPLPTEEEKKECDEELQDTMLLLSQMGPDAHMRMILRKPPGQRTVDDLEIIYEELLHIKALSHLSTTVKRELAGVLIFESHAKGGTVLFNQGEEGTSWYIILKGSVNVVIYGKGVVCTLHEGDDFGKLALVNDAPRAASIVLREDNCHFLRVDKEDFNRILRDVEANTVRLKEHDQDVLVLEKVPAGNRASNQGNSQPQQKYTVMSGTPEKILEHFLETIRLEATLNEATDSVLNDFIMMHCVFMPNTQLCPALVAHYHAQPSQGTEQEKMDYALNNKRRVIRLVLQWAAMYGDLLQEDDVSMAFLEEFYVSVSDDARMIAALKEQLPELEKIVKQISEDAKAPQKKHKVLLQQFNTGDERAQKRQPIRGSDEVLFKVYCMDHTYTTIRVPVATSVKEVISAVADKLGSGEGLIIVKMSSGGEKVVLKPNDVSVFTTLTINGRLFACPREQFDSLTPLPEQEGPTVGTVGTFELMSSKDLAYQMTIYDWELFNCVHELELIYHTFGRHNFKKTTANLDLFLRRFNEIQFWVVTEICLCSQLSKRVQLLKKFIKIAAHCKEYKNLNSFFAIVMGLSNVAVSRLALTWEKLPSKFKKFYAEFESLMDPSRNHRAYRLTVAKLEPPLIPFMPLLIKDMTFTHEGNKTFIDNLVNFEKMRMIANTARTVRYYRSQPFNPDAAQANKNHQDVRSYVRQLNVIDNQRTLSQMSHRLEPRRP

activation, inactive:
COc1ccc(F)c(CN2CCOc3ccc(CN4CCC(O)(c5cccnc5)CC4)cc3C2)c1 -17.3%
NC(=O)c1sc(-c2ccsc2)cc1N -1.75%
COc1ccc(/C=C/C(=O)N2CCc3c(cnc(C)c3CNC(=O)c3ccsc3)C2)cc1OC -8.02%
COc1ccccc1CNc1ccnc(-c2ccccc2Cl)n1 3.68%
CCCCCCCCCCC(C)(C)C(=O)Nc1c(OC)cc(OC)cc1OC -90%
CC(N)(C(=O)O)c1ccc(C(=O)O)cc1 (stereo not given) 0.539% and -12.7%
CN1CCc2cccc3c2C1Cc1ccc(O)c(O)c1-3 (stereo not given) -1.99% and -24.3%
CC(=O)OCOC(c1ccc2ccccc2c1)P(=O)(OCOC(C)=O)OCOC(C)=O (stereo not given) -8.96%
CC#CCOC(=O)c1c(C)nc2sc3c(c2c1N)CCC(O)C3 (stereo not given) -36%
COC(=O)C1CCN(Cc2ccc3c(c2)CN(C(=O)c2cc(C)oc2C)CCO3)CC1 -4.57%
O=C(Nc1cccc(F)c1)N1CCCC2(CCN(C(=O)c3cnccn3)CC2)C1 4.69%
CCOc1ccccc1CN1CCCC(c2nc(C)ncc2-c2ccc(F)cc2)C1 (stereo not given) -16.2%
COc1ccccc1C1CN(Cc2ccccc2O)Cc2ccccc2O1 (stereo not given) 4.98%
COc1ccc(-c2ccnc(-n3ncc(C(=O)NCc4cccnc4)c3C3CC3)n2)cc1F -19.4%
CC(N)(COP(=O)(O)O)C(=O)O (stereo not given) 4.78%
O=c1c(-c2cccs2)nc2cncnc2n1Cc1ccccc1 -3.4%
COc1ccc(Oc2ncc3nc(-c4cccs4)c(=O)n(CCC#N)c3n2)cc1 3.43%
CCCCC(=O)Oc1ccccc1C(=O)O -11.2%
CC[C@]12CCCN3CCc4c(n(c5ccccc45)C(=O)C1)[C@@H]32 0.698%
C[C@@H]1CCC(=O)N(CC[C@H](Oc2ccccc2)c2ccccc2)CC1 -38.3%
Cn1cc(-c2nc3cncnc3n(C3CC3)c2=O)c2ccccc21 -16.8%
O=C(c1cccc(F)c1)N1CCC[C@@]2(CCN(Cc3ccncc3)C2)C1 -4.51%
NC(=O)c1cc[n+](CC2=C(C(=O)O)N3C(=O)[C@@H](NC(=O)C(c4ccccc4)S(=O)(=O)[O-])[C@H]3SC2)cc1 (stereo not given in full) 1.42%
COc1ccc(CN2C[C@H](Cc3ccccc3)[C@@H](CC(=O)Nc3ccccc3)C2=O)cc1 -26.4%
O=C(O[C@@H]1Cc2c(O)cc(O)cc2OC1c1ccc(O)c(O)c1)c1cc(O)c(O)c(O)c1 (stereo not given in full) -9.9%
COCCn1c(=O)c(-c2ccc(Cl)cc2)nc2cnc(N3CCOCC3)nc21 -7.24%
COc1cc(C)nc(-n2nc(C)cc2OC)n1 -19.1%
C[C@H](N)C(=O)O -8.54%
CCc1ccccc1N(C)C -19%
NCC(O)c1ccc(O)c(O)c1 (stereo not given) -10%
COc1cccc(CN2CCC3(CCC(CNC(=O)c4ccco4)O3)CC2)c1OC (stereo not given) -5.64%
O=c1ccc2c(OCCCCc3ccccc3)c3ccoc3cc2o1 -33.8%
O=C(NCCO)c1cn(C2CCCN(Cc3cccc(C(F)(F)F)c3)C2)nn1 (stereo not given) -4.42%
Cc1cccc2c(N3CCCC3)nc(CNS(=O)(=O)c3ccc4ccccc4c3)nc12 -13.5%
CN(C)c1ccc(/C=C/C=C/c2ccnc3ccccc23)cc1 -42.7%
COc1ncc2nc(-c3cccc(C#N)c3)c(=O)n(CCC#N)c2n1 -12.7%
CCn1c(=O)[nH]c2ccccc21 -7.2%
CN(C)C(=O)[C@@H]1C[C@@H](Sc2nc3ccccc3[nH]2)CN1Cc1ccnc2ccccc12 1.97%
CC1(C)C2CC[C@]3(C)[C@H](C(=O)C=C4[C@@H]5C[C@@](C)(C(=O)O)CC[C@]5(C)CC[C@]43C)[C@@]2(C)CC[C@@H]1O[C@H]1O[C@H](C(=O)O)[C@@H](O)[C@H](O)[C@H]1O[C@@H]1O[C@H](C(=O)O)[C@@H](O)[C@H](O)[C@H]1O (stereo not given in full) -12.1%
CN1CCC2(CC1)CCN(C(=O)c1ccncc1)CC2 -4.19%
CCOc1ccc(CN2CCOc3ccc(C(O)c4cccnc4)cc3C2)cc1 (stereo not given) -0.631%
CC(O)[C@@H](N)C(=O)O (stereo not given in full) 4.68%
COC(=O)c1cc(CNC(=O)c2ccccc2OC)cc(NC(=O)c2ccccc2F)c1 -9.28%
O=C(O)C1=CCNCC1 7.3% [middle of 4 runs]
OCc1ccccc1 -13.2%
CO[C@H]1C[C@H](O[C@H]2[C@H](C)[C@@H](O[C@@H]3O[C@H](C)C[C@H](N(C)C)[C@H]3OC(C)=O)[C@@H](C)C[C@]3(CO3)C(=O)[C@H](C)[C@@H](OC(C)=O)[C@@H](C)[C@@H](C)OC(=O)[C@@H]2C)O[C@@H](C)[C@@H]1OC(C)=O 5.56%
COc1ccc2oc(-c3ccc(O)cc3)cc(=O)c2c1 -22%
CCOC(=O)N1CCN(Cc2ccc3c(c2)CN(C(=O)c2cccc(-n4cccn4)c2)CCO3)CC1 -8.94%
CC(C)[C@@H]1NC(=O)[C@H](Cc2ccccc2)NC(=O)[C@@H](CC(=O)O)NC(=O)CNC(=O)[C@H](CCCNC(=N)N)NC1=O -15.4%
COc1ccccc1-c1nccc(NCc2cccc(C)c2)n1 -13.6%
CN(C)C(=O)c1ccc(-c2cncnc2Nc2ccc(F)cc2)cc1 -12.3%
CN1CCN(C2=Nc3ccccc3Sc3ccc(Cl)cc32)CC1 -19.7% and 8.63%
COc1ccccc1CNc1ccnc(-c2cccnc2)n1 -0.808%
O=C(O)c1cc(=O)c2c3nc4ccccc4oc-3cc(=O)c2[nH]1 7.38%
CC1(C)[C@@H](O[C@H]2O[C@H](C(=O)O)[C@@H](O)[C@H](O)[C@H]2O[C@@H]2O[C@H](C(=O)O)[C@@H](O)[C@H](O)[C@H]2O)CC[C@]2(C)[C@H]3C(=O)C=C4[C@@H]5C[C@@](C)(C(=O)O)CC[C@]5(C)CC[C@@]4(C)[C@]3(C)CC[C@@H]12 3.87%
